Measured values published in article PMC4336329 (PLoS ONE, 2015).
Among all 310,000 compounds or so, about 2,200 (0.71%) showed an effect of 50% or more. Effects have a minus sign here. This is one part of the list.

biological target: human ether-à-go-go-related gene (hERG) potassium channel (human, UniProt Q12809); experiment: primary screen, population patch clamp on CHO cells stably expressing hERG
Sequence (Q12809 whole entry, looked up): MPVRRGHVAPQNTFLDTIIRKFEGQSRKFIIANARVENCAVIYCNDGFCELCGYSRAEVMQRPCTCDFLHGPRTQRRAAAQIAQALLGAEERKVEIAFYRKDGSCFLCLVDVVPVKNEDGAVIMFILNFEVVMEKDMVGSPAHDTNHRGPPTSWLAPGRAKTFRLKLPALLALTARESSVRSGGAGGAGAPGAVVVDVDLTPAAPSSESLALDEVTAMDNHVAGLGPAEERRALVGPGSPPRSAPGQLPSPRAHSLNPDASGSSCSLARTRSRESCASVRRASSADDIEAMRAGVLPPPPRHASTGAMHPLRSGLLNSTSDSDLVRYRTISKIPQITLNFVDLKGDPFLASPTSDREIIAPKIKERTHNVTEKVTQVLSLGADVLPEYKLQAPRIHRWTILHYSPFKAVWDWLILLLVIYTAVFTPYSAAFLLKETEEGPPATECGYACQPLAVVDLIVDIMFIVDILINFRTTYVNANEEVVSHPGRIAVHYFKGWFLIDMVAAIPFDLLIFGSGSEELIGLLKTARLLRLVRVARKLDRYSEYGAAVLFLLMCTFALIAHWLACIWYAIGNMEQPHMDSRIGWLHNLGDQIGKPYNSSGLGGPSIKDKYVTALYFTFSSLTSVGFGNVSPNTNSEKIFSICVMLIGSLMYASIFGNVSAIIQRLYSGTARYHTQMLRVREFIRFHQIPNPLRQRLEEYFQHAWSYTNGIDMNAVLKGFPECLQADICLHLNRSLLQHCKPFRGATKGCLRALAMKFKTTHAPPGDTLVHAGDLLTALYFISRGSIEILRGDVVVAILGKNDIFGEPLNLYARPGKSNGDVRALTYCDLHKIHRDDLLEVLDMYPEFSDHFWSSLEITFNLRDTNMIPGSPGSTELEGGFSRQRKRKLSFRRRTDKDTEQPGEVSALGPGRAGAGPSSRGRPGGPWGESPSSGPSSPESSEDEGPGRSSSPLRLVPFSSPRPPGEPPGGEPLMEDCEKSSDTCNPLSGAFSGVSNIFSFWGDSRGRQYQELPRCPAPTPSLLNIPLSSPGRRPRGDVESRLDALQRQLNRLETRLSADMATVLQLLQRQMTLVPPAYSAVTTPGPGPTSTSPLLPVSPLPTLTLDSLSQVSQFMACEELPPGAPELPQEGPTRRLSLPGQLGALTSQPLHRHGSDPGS

SMILES	hERG current change (%, negative = inhibition) at 1uM [%]
COc1cccc(NC(=O)CN(C)C(=O)c2ccccc2-c2nc3ccccc3s2)c1	-1.78
CN(CC(=O)Nc1cccc2c1CCCC2)S(=O)(=O)c1ccc(Br)cc1	3.76
Cc1c(CCO)sc[n+]1CC(=O)OCCC12CC3CC(CC(C3)C1)C2.[Cl-]	5.19
O=c1c2ccc(Cl)cc2[nH]c(=S)n1-c1cccnc1	16.9
CNc1ncnc2c1ncn2[C@@H]1O[C@H](CO)[C@@H](O)[C@H]1O	14
CCc1ccc(CN(C(=O)c2ccco2)C2CCS(=O)(=O)C2)cc1 (stereo not shown)	4.18
Cc1cc(C(=O)O)c(S(C)(=O)=O)s1	10
COc1ccc(-n2ccnc(SCC(=O)NCc3ccc(C)cc3)c2=O)cc1Cl	3.45
CN1c2ccccc2Sc2cc(N)ccc21	10.1
O=C(CSc1nc2cc3ccccc3cc2[nH]1)Nc1ccc(F)cc1	5.08
CS(=O)(=O)N(CC(=O)N1CCN(c2ccc(F)cc2)CC1)c1ccc(F)c(Cl)c1	-16
CCc1nc(CN2CCN(c3ccc(C(F)(F)F)cn3)CC2)c(C)[nH]1	-29.6
CCN1CCN(C(=O)CN(c2ccc(C)cc2)S(C)(=O)=O)CC1	13.4
O=C(NC1CCS(=O)(=O)C1)c1ccc(S(=O)(=O)NCC2CCCO2)cc1 (stereo not shown)	-1.85
CCOC(=O)c1ccc[n+](CC(=O)c2ccccc2)c1.[Br-]	8.09
Nc1ccc(S(=O)(=O)NNC(=O)C(=O)NNc2ccccn2)cc1	7.29
COC(=O)c1cccnc1NC(=S)NNC(=O)c1ccncc1	5.32
Cc1ccc(CNC(=O)CCS(=O)(=O)c2cccc3nonc23)cc1	8.61
O=C(NCc1ccccc1F)C1CCCN1C(=O)Nc1ccc(F)cc1 (stereo not shown)	8.73
CCCc1cc(=O)oc2cc(OCc3cc(OC)c(OC)c(OC)c3)c(Cl)cc12	15.7

SMILES	hERG current change (%, negative = inhibition) at 1uM [%]
CC1=CC2=NC(=O)CC(C)(C(=O)N(CC(=O)NC3CCCC3)Cc3ccccc3)N2C=C1 (stereo not shown)	1.71
COc1cccc(C2Nc3cccc4cccc(c34)N2)c1	2.68
Cc1nnc(SCC(=O)NCc2ccccc2)n1-c1ccccc1	20.7
O=C1CSC(c2ccc([N+](=O)[O-])cc2)N1C1CCCCC1 (stereo not shown)	-13
CN(C)c1ccc(/C=C(/NC(=O)c2ccccc2Cl)C(=O)NCCN2CCOCC2)cc1	9.12
Fc1ccc(Nc2c(-c3ccco3)nc3ccccn23)cc1	-1.03
O=C(COc1ccc(F)cc1Cl)Nc1nc(-c2ccccn2)cs1	9.91
COc1ccc(N(C(C)C(=O)Nc2cccnc2)S(C)(=O)=O)cc1 (stereo not shown)	14.6
Cc1ccc(S(=O)(=O)NCC(=O)OC(C(=O)c2ccccc2)c2ccccc2)cc1 (stereo not shown)	9.46
CC(O)CNc1nc2ccccc2n1CC(=O)NCCc1ccc(Cl)cc1 (stereo not shown)	7.42
COc1cccc(N2CCN(C(=O)C3CCN(S(=O)(=O)c4cccs4)CC3)CC2)c1	12.1
CN(C)CCN(C(=O)CCS(=O)(=O)c1ccccc1)c1nc2cc3c(cc2s1)OCO3.Cl	14.4
c1ccc(-c2nnc(-c3ccco3)o2)cc1	6.99
S=C(NCc1ccccc1)Nc1cccc(Cl)c1	-1.34
COc1ccc(NC2CCN(C3CC(=O)N(c4ccc(F)c(Cl)c4)C3=O)CC2)cc1 (stereo not shown)	-16.2
CCN(CC)CCn1c2ccccc2c2n[nH]c(=S)nc21	8.96
CC1=C(C#N)C(c2cccnc2)C2=C(N1)c1ccccc1C2=O (stereo not shown)	12.1
N#C/C(=C/c1ccc(C(=O)O)cc1)C(=O)NCc1ccccc1	-1.61
O=C(Oc1cccc(C(=S)N2CCCCC2)c1)c1ccccc1	12.1
CCN(CC(=O)NCc1ccc(Cl)cc1)C(=O)CSCC(=O)Nc1ccc(C)cc1	-22.6

SMILES	hERG current change (%, negative = inhibition) at 1uM [%]
O=C1C=C(c2cccc(CO)c2)C[C@@H](c2ccc(F)cc2)C1	-2.11
Cn1c(-c2ccc(C(C)(C)C)cc2)n[nH]c1=S	11.7
NS(=O)(=O)c1cccc(-n2cnnn2)c1	4.15
CCOc1cccc(N2C(=O)CC(n3cnc4ccccc43)C2=O)c1 (stereo not shown)	11
Nc1nc(SCc2nnc(SCC(=O)O)n2-c2ccccc2)nc2sc3c(c12)CCCC3	2.72
Cc1cccc(/C=N/NC(=O)c2cccc([N+](=O)[O-])c2)n1	9.21
NC(=S)Nc1ccc2cn[nH]c2c1	10.1
Cc1ccc(S(=O)(=O)Nc2nc(C)c(C)s2)cc1	9.1
COCCNC(=O)C1CC(c2ccc(C(F)(F)F)cc2)=NO1 (stereo not shown)	9.26
COc1ccc(CCNC(=O)CCC(=O)Nc2nnc(C(C)C)s2)cc1OC	6.11
Cc1cccc(C(=O)Nc2ccc(O)c3c(=O)cc(-c4ccccc4Cl)oc23)c1	6.44
Cc1ccccc1Nc1nc(N)nc(COC(=O)c2ccccc2)n1	21
COC(=O)C1=C(N)Oc2cc(C)oc(=O)c2C1c1cccnc1 (stereo not shown)	-3.81
CC(OC(=O)c1nn(C)c(=O)c2ccccc12)C(=O)NC1CCCCC1C (stereo not shown)	-0.613
CCOCCSc1n[nH]c(=O)n1CCc1ccccc1	12.3
COc1ccc(C)cc1NC(=O)CN1CCN(c2ccccc2F)CC1	1.69
O=[N+]([O-])c1cccc2ccc(N3CCOCC3)nc12	9.39
C=C(C)C(=O)Nc1ccc(OC(F)(F)C(F)F)c(NC(=O)C(=C)C)c1	11.4
